# Test results taken from the supplement of paper PMC3334620.
# The full ranking holds about 33,000 sequences; the median of “E-score (-0.5 to 0.5)” is about -0.036, and the highest 2% start at about 0.37. Some of the results follow.
# Target: T1, Yer064c (UniProt P40041)
# T1 sequence: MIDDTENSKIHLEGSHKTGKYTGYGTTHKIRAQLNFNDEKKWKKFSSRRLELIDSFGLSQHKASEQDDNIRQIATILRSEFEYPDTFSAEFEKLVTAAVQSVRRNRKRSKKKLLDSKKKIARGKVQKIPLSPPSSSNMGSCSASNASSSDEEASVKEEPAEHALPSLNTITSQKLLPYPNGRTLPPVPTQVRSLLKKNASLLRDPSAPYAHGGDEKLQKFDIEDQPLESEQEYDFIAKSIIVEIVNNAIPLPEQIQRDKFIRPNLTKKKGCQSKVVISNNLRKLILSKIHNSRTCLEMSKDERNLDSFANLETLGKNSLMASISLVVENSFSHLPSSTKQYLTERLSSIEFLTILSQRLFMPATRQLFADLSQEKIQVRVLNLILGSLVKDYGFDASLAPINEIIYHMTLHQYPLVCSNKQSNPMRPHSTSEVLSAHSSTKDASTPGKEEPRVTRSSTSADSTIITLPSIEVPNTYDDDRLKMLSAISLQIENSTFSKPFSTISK
# Test: PBM E-score (8-mer binding enrichment) (E-score (-0.5 to 0.5)); higher = stronger / more preferred TF binding; most listed sequences are background and not binding sites
# Details: protein concentration: 200 nM; construct: GST-full length
# Outline: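 GST-tagged yeast TFs (full-length or DNA-binding domain) were made by PURExpress in vitro transcription/translation and applied at about 100-200 nM to universal all-10-mer Agilent arrays. The arrays were made double-stranded by primer extension, on fresh or once-stripped slides. Bound protein was detected with fluorescent anti-GST, and scans were normalised with masliner. Each ungapped eight-base word, pooled with its reverse complement, received an E-score (modified Wilcoxon-Mann-Whitney statistic) from the Universal PBM Analysis Suite.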
row,Sequence,PBM E-score
1,CAAGGCCA,-0.197
2,CGTGAGGC,-0.298
3,CACCTCAG,-0.0754
4,AGGGATCG,-0.137
5,ACCGCCCT,-0.174
6,CAGATTGC,-0.117
7,ACGACTAT,0.401
8,CTCATCCC,0.048
9,GGCGGGAA,-0.353
10,ATTTAGTC,0.444
11,GCCAACTA,0.0439
12,CGAAAAGC,-0.166
13,CAGAGGAA,-0.108
14,CCCGTGTC,-0.17
15,CCATTCGC,-0.0756
16,TGTCGTAA,-0.0131
17,TCCAAGCA,0.0169
18,TCTAGGCA,-0.0384
19,CTGTCTAA,0.105
20,CACGGTCG,0.0321
21,GATTCCGC,0.225
22,GGCTTTTA,-0.215
23,ATCGTAAC,0.0475
24,ACGGTGGG,-0.124
25,CGGTACCG,0.0264

row,Sequence,PBM E-score
1,ACTTGTAA,-0.0878
2,AAATAAGC,-0.112
3,CGCGAGGA,0.054
4,GCTGGTCC,-0.226
5,AATATGTC,-0.0854
6,CTGGACGA,-0.0631
7,CGTGGGCC,-0.27
8,AGCAAAAT,-0.0479
9,CGGAACAA,-0.0264
10,AAAACGGC,-0.298
11,AGTCGGTC,0.0869
12,CGGTCTTA,-0.123
13,AATGTTAC,-0.163
14,AGCTTCTC,-0.141
15,CGGACAAA,0.0944
16,GTCACGAA,0.106
17,GAACTTAC,-0.0347
18,GGTGGCGA,-0.161
19,CACATACC,0.00062
20,CGATGTGA,0.103
21,ATACCTGG,-0.246
22,CAGTGAGA,0.0301
23,AACGTTGT,-0.271
24,CGAAGACG,-0.172
25,CGCTTTTC,-0.313

row,Sequence,PBM E-score
1,GACAAGAC,-0.00374
2,TCCAAACA,-0.12
3,CTTTTACC,0.0597
4,CTCTGGCA,-0.214
5,CTGTTGTC,-0.0565
6,TAAGATAA,0.0931
7,TTCTTCAA,0.146
8,AATCAGCC,0.355
9,ACAGGGTC,-0.0708
10,AGGGTACA,-0.0998
11,ATCTTGAA,0.243
12,GTTTATGA,0.0851
13,CGTCTTAA,-0.00451
14,ACGGTAGT,0.23
15,AAGGTGTC,-0.104
16,GCCCACAC,-0.164
17,CGCAGGAG,0.00394
18,AATAGGGG,-0.273
19,ATTAGGGA,-0.0406
20,AAACGCTG,-0.316
21,CTATGCTC,-0.229
22,CTTCCTTC,-0.245
23,CATACTTC,0.00163
24,AGAAAGAT,0.0186
25,GTAACCAC,-0.00779

row,Sequence,PBM E-score
1,TGCGGCAA,-0.173
2,GCTGGCTA,0.183
3,AAAACACG,-0.0778
4,ATATGTAG,0.0597
5,CCAGCGGG,-0.2
6,ATGCAGAA,-0.141
7,GCAGTAAA,-0.127
8,AGTTTTCC,-0.243
9,AGCTTAAC,-0.0504
10,CCTTCTAA,0.0218
11,ATATCATG,-0.0474
12,CGAATACA,-0.139
13,CATGAATG,0.197
14,ATTATTAC,0.0211
15,ATGTGCAG,-0.231
16,CCTAGGGC,-0.0352
17,CACTTGTA,-0.0574
18,CTGAGCTA,-0.143
19,TTAGAAAA,0.0375
20,ACTTTTCG,0.0128
21,TAACTGAA,0.0233
22,ACCACGGA,-0.17
23,GCAGTGCA,-0.082
24,GTGCGCGA,-0.0828
25,CACACAAA,0.0172

row,Sequence,PBM E-score
1,AGAGGCAC,-0.0952
2,CAGTTCAC,-0.0182
3,ATATTGTG,-0.101
4,ATTAACAG,0.0829
5,GTATGGCA,-0.184
6,GTCAGCTA,0.156
7,CAGTATCA,-0.162
8,ATGCCACG,-0.299
9,GACAGTCC,0.0581
10,ACGACAAG,-0.289
11,CCTAGTCA,0.446
12,AAAGTGAC,0.305
13,GTCAAAAA,0.22
14,CTTCGAGA,0.0551
15,GCTTGGCA,-0.117
16,ACTGGCCT,-0.187
17,TAAATATA,0.255
18,CGCTGATA,-0.0314
19,ACGGCTGG,-0.0618
20,ATGACATG,0.0304
21,CAGAGTAG,0.0443
22,ACAGGCGG,-0.162
23,AGGTACGG,-0.127
24,ATGAACCA,0.25
25,ATCAGCAT,0.11

row,Sequence,PBM E-score
1,AAAAGTTT,-0.0997
2,ACGAGGAG,-0.0257
3,AAGTGGGC,-0.068
4,CCCTACGA,0.0187
5,CGACCTCA,0.0582
6,CATGTGTC,0.175
7,CCCAGAGA,-0.136
8,ACCATACC,0.065
9,AATATACC,0.0972
10,AGACTCGG,0.227
11,ACTCCTAC,0.319
12,GCATAAGC,-0.214
13,CTGCCCAC,-0.296
14,ACGTCGAC,0.134
15,ACCACTCT,-0.0617
16,ATACCAAG,-0.1
17,CAACATTA,0.102
18,CCTACTAA,0.0147
19,TGCGAGAA,-0.177
20,CGAGCCCG,-0.143
21,CCGGTTCC,-0.328
22,ACTTATCG,0.0591
23,CCTGGCAG,-0.105
24,CCGTGGAA,0.0311
25,TATGCTGA,0.192

row,Sequence,PBM E-score
1,ACTGCAAA,0.102
2,CCCTAACC,-0.338
3,CCTTCGCC,-0.256
4,ATGCTCAC,-0.0501
5,ATTCGCGG,0.13
6,ACATCTCC,-0.122
7,AAGTCTAA,0.0139
8,TCTCATAA,0.209
9,CGGGTCGC,-0.0932
10,TAGGTAAA,0.0133
11,TGTAGAAA,-0.103
12,CAATTTAG,0.196
13,AGCTTCCC,-0.305
14,AACCACTT,0.006
15,TGCTACAA,0.0171
16,CATACAAC,-0.101
17,AACCTGGA,-0.115
18,CCCCTCAG,-0.251
19,CTCCTACA,0.111
20,CCGGATTC,-0.121
21,CTTAATGC,0.0833
22,AAACGGTG,0.0462
